The results in this text go back to article PMC4336329 (PLoS ONE, 2015).

About 14,000 (4.5%) of roughly 310,000 compounds showed an effect of 50% or more. The effect is printed as a negative number. The list shows a part of the results.
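Also: peak tail current of the secondary pulse compared with the same well before compound.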

For this assay, the target named is human ether-à-go-go-related gene (hERG) potassium channel (human, UniProt Q12809). Description: primary screen, population patch clamp on CHO cells stably expressing hERG.
Chain of human ether-à-go-go-related gene (hERG) potassium channel (Q12809 whole entry, looked up): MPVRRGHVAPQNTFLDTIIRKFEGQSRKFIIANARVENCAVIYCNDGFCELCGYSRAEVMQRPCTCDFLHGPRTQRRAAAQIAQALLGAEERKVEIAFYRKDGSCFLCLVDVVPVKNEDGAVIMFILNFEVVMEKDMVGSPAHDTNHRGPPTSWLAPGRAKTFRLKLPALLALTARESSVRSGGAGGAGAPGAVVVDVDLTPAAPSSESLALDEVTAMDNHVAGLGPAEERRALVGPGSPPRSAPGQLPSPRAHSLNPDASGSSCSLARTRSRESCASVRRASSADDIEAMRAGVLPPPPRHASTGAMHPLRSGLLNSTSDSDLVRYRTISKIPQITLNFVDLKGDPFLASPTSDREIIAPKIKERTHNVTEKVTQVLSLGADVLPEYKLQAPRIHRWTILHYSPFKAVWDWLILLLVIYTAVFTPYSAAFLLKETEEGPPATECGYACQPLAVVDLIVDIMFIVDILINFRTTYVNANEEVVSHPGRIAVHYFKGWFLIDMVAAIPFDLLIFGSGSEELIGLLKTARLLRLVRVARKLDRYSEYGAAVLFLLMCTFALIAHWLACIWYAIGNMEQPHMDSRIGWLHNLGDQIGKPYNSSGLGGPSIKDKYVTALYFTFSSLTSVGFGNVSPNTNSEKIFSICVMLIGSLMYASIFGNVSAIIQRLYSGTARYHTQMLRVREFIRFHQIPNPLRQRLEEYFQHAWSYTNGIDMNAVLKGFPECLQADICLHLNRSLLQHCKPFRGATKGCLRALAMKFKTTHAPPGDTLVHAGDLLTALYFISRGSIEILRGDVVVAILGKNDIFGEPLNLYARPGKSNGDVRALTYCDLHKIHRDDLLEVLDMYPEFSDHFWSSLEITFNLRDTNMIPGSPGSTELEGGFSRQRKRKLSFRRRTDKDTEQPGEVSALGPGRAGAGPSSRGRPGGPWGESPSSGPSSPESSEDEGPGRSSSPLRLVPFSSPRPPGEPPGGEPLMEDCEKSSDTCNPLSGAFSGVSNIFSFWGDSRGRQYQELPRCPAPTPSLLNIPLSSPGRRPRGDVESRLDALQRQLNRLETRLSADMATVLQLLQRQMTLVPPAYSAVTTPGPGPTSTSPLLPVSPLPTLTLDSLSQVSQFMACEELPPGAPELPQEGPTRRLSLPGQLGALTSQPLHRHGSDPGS
Turning to `CC12CN3CCN(CC(C3)C1O)C2` (centres unmarked), the “hERG current change (%, negative = inhibition) at 10uM” value is reported as 6.44%.

For the molecule `CCCCn1c(=O)n(CC(=O)Nc2c(CC)cccc2CC)c(=O)c2c1nc(CO)n2CCC`, the “hERG current change (%, negative = inhibition) at 10uM” value is reported as -4.92%.

For the molecule `COc1ccc(C(=O)c2ccc(OC)c(Br)c2)cc1Br`, the “hERG current change (%, negative = inhibition) at 10uM” value was 7.73%.

Turning to `COc1cccc(C2C(C#N)=C(N)Oc3cc(N)ccc32)c1OC` (centres unmarked), the “hERG current change (%, negative = inhibition) at 10uM” value was -6.99%.

For the molecule `CCOC(=O)c1sc(NC(=O)CSc2nnc(C(C)C)n2CC)nc1C`, the “hERG current change (%, negative = inhibition) at 10uM” value is recorded as -10%.

For the molecule `COc1cc(C2SCC(=O)N2CCN2CCCCC2)ccc1O.Cl` (centres unmarked), the “hERG current change (%, negative = inhibition) at 10uM” value was 30.1%.

As to `Cc1ccc(OCC(=O)N(Cc2ccco2)C2CCS(=O)(=O)C2)cc1` (centres unmarked), the “hERG current change (%, negative = inhibition) at 10uM” value was -13%.

Consider `c1ccc2[nH]c(CCNC3CCCCC3)nc2c1`, for which the “hERG current change (%, negative = inhibition) at 10uM” value is on record as -14.8%.

`NC(=O)CC(NC(=O)Cc1cccc2ccccc12)c1ccc(NCCc2ccc(F)cc2)c([N+](=O)[O-])c1` (centres unmarked): the “hERG current change (%, negative = inhibition) at 10uM” value is listed as 4.1%.

Consider `COc1ccc(Cl)cc1NC(=O)NC(C)c1ccncc1` (centres unmarked), for which the “hERG current change (%, negative = inhibition) at 10uM” value is given as -14.7%.

Consider `O=C(NNC(=S)NC(=O)c1ccccc1)c1cccc([N+](=O)[O-])c1`, for which the “hERG current change (%, negative = inhibition) at 10uM” value came out at 22.8%.

As to `NC(=O)CSc1nnc(-c2ccco2)n1-c1ccccc1`, the “hERG current change (%, negative = inhibition) at 10uM” value was determined as 16.1%.

With `Cc1cccc2cc(CN(CC(C)C)S(=O)(=O)c3ccccc3)c(=O)[nH]c12`, the “hERG current change (%, negative = inhibition) at 10uM” value is on record as 16.5%.

Take `Cc1ccc2cc(CN(CC3CCCO3)S(=O)(=O)c3ccc4c(c3)OCCO4)c(=O)[nH]c2c1C` (centres unmarked): the “hERG current change (%, negative = inhibition) at 10uM” value is 6.95%.

With `Cc1ccc(SCC(=O)Nc2ccccc2C(=O)O)cc1`, the “hERG current change (%, negative = inhibition) at 10uM” value is listed as -0.936%.

With `Cc1cc(C)c(NC(=O)c2cccc3c2C(=O)N(C2CCCCC2)C3)c(C)c1`, the “hERG current change (%, negative = inhibition) at 10uM” value is reported as -11%.

As to `O=C(CSc1nnc(SCc2ccccc2)s1)N/N=C/c1c(Cl)cccc1Cl`, the “hERG current change (%, negative = inhibition) at 10uM” value turned out to be 2.38%.

In the case of `C=C(C)CC(NCc1ccco1)c1ccc(OC)cc1` (centres unmarked), the “hERG current change (%, negative = inhibition) at 10uM” value is recorded as -3.88%.

On to `O=C(c1ccccc1)c1ccccc1C(=O)N1CCOCC1`, for which the “hERG current change (%, negative = inhibition) at 10uM” value is reported as 16.7%.

Regarding `Cc1ccccc1-c1nc(CSc2nc3c(c(=O)[nH]2)CCC3)c(C)o1`, the “hERG current change (%, negative = inhibition) at 10uM” value is 17.3%.

On to `CCN(CC)C(=O)CSc1nc2ccsc2c(=O)n1CCCC(=O)NCCc1ccc(S(N)(=O)=O)cc1`, for which the “hERG current change (%, negative = inhibition) at 10uM” value amounted to 24.7%.

Regarding `Br.C=CCN1C(c2ccc(Br)cc2)=CS/C1=C(/C#N)c1nnc(N2CCOCC2)n1-c1ccccc1`, the “hERG current change (%, negative = inhibition) at 10uM” value is -13.4%.

Take `CCCC(=O)N1CCN(c2ccc(NC(=O)c3ccc(OCC)c([N+](=O)[O-])c3)cc2)CC1`: the “hERG current change (%, negative = inhibition) at 10uM” value turned out to be 7.88%.

Consider `Cc1cc(=O)[nH]c(N/N=C/c2ccc(OC(=O)c3cccnc3)cc2)n1`, for which the “hERG current change (%, negative = inhibition) at 10uM” value was 2.07%.

In the case of `CSC(=NC#N)N1CCN(c2ccccn2)CC1`, the “hERG current change (%, negative = inhibition) at 10uM” value is on record as -5.37%.

As to `CC1Cc2ccccc2N1C(=O)Cn1nc(C(=O)O)c2ccccc2c1=O` (centres unmarked), the “hERG current change (%, negative = inhibition) at 10uM” value is given as -28.9%.

Take `COC(=O)c1cc2n(n1)CCN(Cc1ccccc1F)C2=O`: the “hERG current change (%, negative = inhibition) at 10uM” value was 8.43%.

In the case of `O=C1CC(=O)N(c2ccc(Cl)cc2)C(=O)N1`, the “hERG current change (%, negative = inhibition) at 10uM” value came out at 25.3%.

Consider `CC(=O)Nc1nc2cccc([N+](=O)[O-])c2s1`, for which the “hERG current change (%, negative = inhibition) at 10uM” value worked out at 16.1%.

As to `COc1ccc(Cl)cc1NC(=S)N1CCN(S(C)(=O)=O)CC1`, the “hERG current change (%, negative = inhibition) at 10uM” value was -9.89%.

`O=C(COC(=O)C1=Cc2ccccc2OC1)NCc1ccccc1`: the “hERG current change (%, negative = inhibition) at 10uM” value is reported as 2.43%.

`Cc1ccccc1NC(=O)C1CCC(=O)N1` (centres unmarked): the “hERG current change (%, negative = inhibition) at 10uM” value is given as -0.504%.

Consider `COc1ccc(C2(C(=O)Nc3ccc(C)cc3)CCOCC2)cc1`, for which the “hERG current change (%, negative = inhibition) at 10uM” value is on record as 11.3%.

In the case of `COc1ccc(S(=O)(=O)N2CCC(C(=O)NCCCN3CCOCC3)CC2)cc1`, the “hERG current change (%, negative = inhibition) at 10uM” value is 1.37%.

For the molecule `CC(C)CN(C(=O)c1cccc(S(=O)(=O)N2CCN(c3ccc(F)cc3)CC2)c1)C1CCS(=O)(=O)C1` (centres unmarked), the “hERG current change (%, negative = inhibition) at 10uM” value is reported as -16%.

On to `Cc1ccc(Sc2cc(Cl)nc(N)n2)cc1`, for which the “hERG current change (%, negative = inhibition) at 10uM” value was 17.8%.

`OCC[C@H]1C[C@H](O)[C@@H](O)[C@@]2(CCCCO2)O1`: the “hERG current change (%, negative = inhibition) at 10uM” value turned out to be 17.5%.

As for `O=C(Nc1cccc(-c2nc3ncccc3o2)c1)c1ccccc1`, the “hERG current change (%, negative = inhibition) at 10uM” value is listed as -9.36%.

Take `COc1ccc(N2CCN(S(=O)(=O)c3ccc(OC)c(C(=O)N4CCCC4)c3)CC2)cc1`: the “hERG current change (%, negative = inhibition) at 10uM” value is -3.54%.

On to `O=C(CSc1ccccn1)Nc1ccc2ccccc2c1`, for which the “hERG current change (%, negative = inhibition) at 10uM” value is -10.1%.

Regarding `CCCN1CCCc2cc(CN(CCCN3CCOCC3)C(=O)Nc3ccc(OCC)cc3)ccc21`, the “hERG current change (%, negative = inhibition) at 10uM” value is reported as -34.2%.

On to `COc1cccc(NC(=O)C(Sc2nc3ccccc3c(=O)n2CC(C)C)c2ccccc2)c1` (centres unmarked), for which the “hERG current change (%, negative = inhibition) at 10uM” value came out at 11.8%.

As to `O=C(Cn1nc(Cc2cccnc2)c2ccccc2c1=O)Nc1ccccc1F`, the “hERG current change (%, negative = inhibition) at 10uM” value is recorded as -19.6%.

Consider `COC(=O)CNC(=O)c1cc(OC)cc(OC)c1`, for which the “hERG current change (%, negative = inhibition) at 10uM” value is 9.58%.

In the case of `COc1ccc(N(C(=O)c2ccccc2)S(=O)(=O)c2cccs2)cc1`, the “hERG current change (%, negative = inhibition) at 10uM” value came to 21.6%.

`CSCC[C@H](NC(=O)OCc1ccccc1)C(=O)O`: the “hERG current change (%, negative = inhibition) at 10uM” value is -2.24%.

Consider `O=C(NCCc1ccccc1)c1c[nH]c2c(F)cccc2c1=O`, for which the “hERG current change (%, negative = inhibition) at 10uM” value was determined as 17%.

Consider `CCCn1c(N)c(N(CCOC)C(=O)c2cc3c(s2)CCCCC3)c(=O)[nH]c1=O`, for which the “hERG current change (%, negative = inhibition) at 10uM” value is 14.4%.

Consider `O=S(=O)(c1cccnc1)N1CCn2cccc2C1c1ccccc1F` (centres unmarked), for which the “hERG current change (%, negative = inhibition) at 10uM” value is reported as -5.05%.

With `COc1ccc(N=Nc2nc3cc(Br)c(Br)cc3n2C)c(OC)c1`, the “hERG current change (%, negative = inhibition) at 10uM” value was -2.96%.

For `CCN(CC)S(=O)(=O)c1cccc(NC(=O)COC(=O)c2cc(=O)c3ccccc3o2)c1`, the “hERG current change (%, negative = inhibition) at 10uM” value was determined as 0.684%.

In the case of `Cc1cccc(C)c1NC(=O)CNC(=O)c1ccc(COc2ccccc2)cc1`, the “hERG current change (%, negative = inhibition) at 10uM” value was 18.2%.

As for `C/C(=N/NC(=O)c1ccc(Br)o1)c1cccc(NC(=O)c2ccc(C)o2)c1`, the “hERG current change (%, negative = inhibition) at 10uM” value was -67.6%.

Consider `Cc1ccc(SCc2c(C(=O)N/N=C/c3ccncc3)nnn2-c2nonc2N)cc1`, for which the “hERG current change (%, negative = inhibition) at 10uM” value is listed as 6.88%.

As to `Cc1cc(C)n(-c2ccc(C(=O)Nc3cc(C(F)(F)F)ccc3N3CCOCC3)cc2)n1`, the “hERG current change (%, negative = inhibition) at 10uM” value is on record as -0.946%.

As to `COc1ccc(N2CCN(C(=O)CCNC(=O)c3ccc(C(C)(C)C)cc3)CC2)cc1`, the “hERG current change (%, negative = inhibition) at 10uM” value is reported as -27.9%.
